Substrate in the series: CN(C)C(=O)c1cc2cnc(Nc3ccc(N4CCNCC4)cn3)nc2n1C1CCCC1
Nature of the series: Enzyme kinetics with recombinant CYP3A4 and scaling to HLM. To be noted: other: recombinant CYP3A4, substrate inhibition model; 37.0 °C. In kind it is in vitro ADME, human.

B1: CYP3A4 (Homo sapiens) (protein)
chain: MALIPDLAMETWLLLAVSLVLLYLYGTHSHGLFKKLGIPGPTPLPFLGNILSYHKGFCMFDMECHKKYGKVWGFYDGQQPVLAITDPDMIKTVLVKECYSVFTNRRPFGPVGFMKSAISIAEDEEWKRLRSLLSPTFTSGKLKEMVPIIAQYGDVLVRNLRREAETGKPVTLKDVFGAYSMDVITSTSFGVNIDSLNNPQDPFVENTKKLLRFDFLDPFFLSITVFPFLIPILEVLNICVFPREVTNFLRKSVKRMKESRLEDTQKHRVDFLQLMIDSQNSKETESHKALSDLELVAQSIIFIFAGYETTSSVLSFIMYELATHPDVQQKLQEEIDAVLPNKAPPTYDTVLQMEYLDMVVNETLRLFPIAMRLERVCKKDVEINGMFIPKGVVVMIPSYALHRDPKYWTEPEKFLPERFSKKNKDNIDPYIYTPFGSGPRNCIGMRFALMNMKLALIRVLQNFSFKPCKETQIPLKLSLGGLLQPEKPVVLKVESRDGTVSGA
notes: purchased BD Biosciences
On to B1, for which the Km (commonly the substrate concentration at which the rate is half of its maximum) was found to be 6.68 µmol/L; the kcat – broadly, the number of substrate molecules converted per active site and unit of time at saturation – turned out to be 0.205 s⁻¹; the kcat/Km (commonly the second-order rate constant that governs catalysis at low substrate concentration) is 1.841 µL/min/pmol.
